# Laboratory results: the supplement of paper PMC10369915
# The list shows a part of the results. Rule as the data show it: active = 3.2 or more and inactive = the rest. The signal is at background level for most entries.
# Target: SHP2 C-SH2 domain E139D
# Assay: enrichment score (SH2-bound / input frequency) (ratio); bacterial display of known human phosphotyrosine sites (pTyr-Var adds point mutants) read by sequencing; higher = stronger binding; tyrosines were phosphorylated by kinases first
# Conditions: peptide library: pTyr-Var
# 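Also: displayed peptides selected on beads carrying the immobilized SH2 domain, with library peptides lacking any tyrosine serving as negative controls.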
row,Binder,enrichment score
1,IITDFYVDMKF [MPP4_Y567_V562I_YF],inactive: 1.3
2,TLNTNYHLPPS [MT-ATP8_Y33_M28T],inactive: 1.02
3,FFVVRYCWLRR [MPZ_Y181_YF],inactive: 0.325
4,LWPIWYRCHRP [MRGPRX1_Y130],inactive: 0.508
5,LLLLFYVVRFC [MPZ_Y177_YF],inactive: 1.87
6,TNYSLYLRSLE [MTM1_Y71_R69S],inactive: 1.83
7,DDSNLYINVKL [MTHFD1_Y52],inactive: 0.81
8,GESQGYDIMEA [MSH2_Y863_P868A],inactive: 0.446
9,STTSDYQWDFS [MTDH_Y364_V368F],inactive: 0.976
10,RQSTLYSFFPT [MSH6_Y8_K13T],inactive: 0.828
11,IITDYYVDMKF [MPP4_Y567_V562I],inactive: 1.13
12,AEDKPYAELWT [MPI_Y46_M51T],inactive: 0.702
13,PLFKIYVAELI [MRPL28_Y230],inactive: 1.85
14,TRDVNYGWIIH [MT-CYB_Y75_R80H],inactive: 1.1
15,TRDVNYGWIIR [MT-CYB_Y75],inactive: 0.855
16,ARGMEYLAEQK [MST1R_Y1198_G1195S],inactive: 0.682
17,ARSMEYLAEQK [MST1R_Y1198],inactive: 1.25
18,VDEVLYEDSST [MTHFS_Y197],inactive: 0.629
19,TRDVNYGWTIR [MT-CYB_Y75_I78T],inactive: 0.519

# Target: SHP2 C-SH2 domain wild-type
# Assay: as above
# Conditions: peptide library: pTyr-Var
row,Binder,enrichment score
1,IITDFYVDMKF [MPP4_Y567_V562I_YF],inactive: 1.71
2,TLNTNYHLPPS [MT-ATP8_Y33_M28T],inactive: 0.683
3,FFVVRYCWLRR [MPZ_Y181_YF],inactive: 0.571
4,LWPIWYRCHRP [MRGPRX1_Y130],inactive: 0.509
5,LLLLFYVVRFC [MPZ_Y177_YF],inactive: 1.67
6,TNYSLYLRSLE [MTM1_Y71_R69S],active: 3.8
7,DDSNLYINVKL [MTHFD1_Y52],inactive: 1.21
8,GESQGYDIMEA [MSH2_Y863_P868A],inactive: 0.397
9,STTSDYQWDFS [MTDH_Y364_V368F],inactive: 0.819
10,RQSTLYSFFPT [MSH6_Y8_K13T],inactive: 1.02
11,IITDYYVDMKF [MPP4_Y567_V562I],inactive: 1.25
12,AEDKPYAELWT [MPI_Y46_M51T],inactive: 0.882
13,PLFKIYVAELI [MRPL28_Y230],inactive: 1.45
14,TRDVNYGWIIH [MT-CYB_Y75_R80H],inactive: 1.04
15,TRDVNYGWIIR [MT-CYB_Y75],inactive: 0.974
16,ARGMEYLAEQK [MST1R_Y1198_G1195S],inactive: 0.755
17,ARSMEYLAEQK [MST1R_Y1198],inactive: 0.817
18,VDEVLYEDSST [MTHFS_Y197],inactive: 0.68
19,TRDVNYGWTIR [MT-CYB_Y75_I78T],inactive: 0.525

# Target: SHP2 N-SH2 domain L43F
# Assay: as above
# Conditions: peptide library: pTyr-Var
row,Binder,enrichment score
1,IITDFYVDMKF [MPP4_Y567_V562I_YF],inactive: 1.37
2,TLNTNYHLPPS [MT-ATP8_Y33_M28T],inactive: 0.667
3,FFVVRYCWLRR [MPZ_Y181_YF],inactive: 0.3
4,LWPIWYRCHRP [MRGPRX1_Y130],inactive: 0.478
5,LLLLFYVVRFC [MPZ_Y177_YF],inactive: 1.57
6,TNYSLYLRSLE [MTM1_Y71_R69S],inactive: 0.89
7,DDSNLYINVKL [MTHFD1_Y52],inactive: 0.982
8,GESQGYDIMEA [MSH2_Y863_P868A],inactive: 0.375
9,STTSDYQWDFS [MTDH_Y364_V368F],inactive: 0.908
10,RQSTLYSFFPT [MSH6_Y8_K13T],inactive: 1.11
11,IITDYYVDMKF [MPP4_Y567_V562I],inactive: 1.34
12,AEDKPYAELWT [MPI_Y46_M51T],inactive: 1.02
13,PLFKIYVAELI [MRPL28_Y230],inactive: 1.51
14,TRDVNYGWIIH [MT-CYB_Y75_R80H],inactive: 1.27
15,TRDVNYGWIIR [MT-CYB_Y75],inactive: 1.14
16,ARGMEYLAEQK [MST1R_Y1198_G1195S],inactive: 0.673
17,ARSMEYLAEQK [MST1R_Y1198],inactive: 0.9
18,VDEVLYEDSST [MTHFS_Y197],inactive: 0.85
19,TRDVNYGWTIR [MT-CYB_Y75_I78T],inactive: 0.827

# Target: SHP2 N-SH2 domain T42A
# Assay: as above
# Conditions: peptide library: pTyr-Var
row,Binder,enrichment score
1,IITDFYVDMKF [MPP4_Y567_V562I_YF],inactive: 1.44
2,TLNTNYHLPPS [MT-ATP8_Y33_M28T],inactive: 0.697
3,FFVVRYCWLRR [MPZ_Y181_YF],inactive: 0.213
4,LWPIWYRCHRP [MRGPRX1_Y130],inactive: 0.409
5,LLLLFYVVRFC [MPZ_Y177_YF],inactive: 1.63
6,TNYSLYLRSLE [MTM1_Y71_R69S],inactive: 0.868
7,DDSNLYINVKL [MTHFD1_Y52],inactive: 0.864
8,GESQGYDIMEA [MSH2_Y863_P868A],inactive: 0.405
9,STTSDYQWDFS [MTDH_Y364_V368F],inactive: 0.853
10,RQSTLYSFFPT [MSH6_Y8_K13T],inactive: 0.941
11,IITDYYVDMKF [MPP4_Y567_V562I],inactive: 1.29
12,AEDKPYAELWT [MPI_Y46_M51T],inactive: 2.62
13,PLFKIYVAELI [MRPL28_Y230],inactive: 1.01
14,TRDVNYGWIIH [MT-CYB_Y75_R80H],inactive: 1.63
15,TRDVNYGWIIR [MT-CYB_Y75],inactive: 0.819
16,ARGMEYLAEQK [MST1R_Y1198_G1195S],inactive: 0.48
17,ARSMEYLAEQK [MST1R_Y1198],inactive: 0.959
18,VDEVLYEDSST [MTHFS_Y197],inactive: 0.732
19,TRDVNYGWTIR [MT-CYB_Y75_I78T],inactive: 0.921

# Target: SHP2 N-SH2 domain T52S
# Assay: as above
# Conditions: peptide library: pTyr-Var
row,Binder,enrichment score
1,IITDFYVDMKF [MPP4_Y567_V562I_YF],inactive: 1.3
2,TLNTNYHLPPS [MT-ATP8_Y33_M28T],inactive: 0.828
3,FFVVRYCWLRR [MPZ_Y181_YF],inactive: 0.311
4,LWPIWYRCHRP [MRGPRX1_Y130],inactive: 0.59
5,LLLLFYVVRFC [MPZ_Y177_YF],inactive: 1.65
6,TNYSLYLRSLE [MTM1_Y71_R69S],inactive: 1.19
7,DDSNLYINVKL [MTHFD1_Y52],inactive: 0.827
8,GESQGYDIMEA [MSH2_Y863_P868A],inactive: 0.429
9,STTSDYQWDFS [MTDH_Y364_V368F],inactive: 1.02
10,RQSTLYSFFPT [MSH6_Y8_K13T],inactive: 1.1
11,IITDYYVDMKF [MPP4_Y567_V562I],inactive: 1.21
12,AEDKPYAELWT [MPI_Y46_M51T],inactive: 1.09
13,PLFKIYVAELI [MRPL28_Y230],inactive: 1.34
14,TRDVNYGWIIH [MT-CYB_Y75_R80H],inactive: 1.48
15,TRDVNYGWIIR [MT-CYB_Y75],inactive: 0.742
16,ARGMEYLAEQK [MST1R_Y1198_G1195S],inactive: 0.743
17,ARSMEYLAEQK [MST1R_Y1198],inactive: 0.942
18,VDEVLYEDSST [MTHFS_Y197],inactive: 0.733
19,TRDVNYGWTIR [MT-CYB_Y75_I78T],inactive: 0.645

# Target: SHP2 N-SH2 domain wild-type
# Assay: as above
# Conditions: peptide library: pTyr-Var
row,Binder,enrichment score
1,IITDFYVDMKF [MPP4_Y567_V562I_YF],inactive: 1.64
2,TLNTNYHLPPS [MT-ATP8_Y33_M28T],inactive: 0.747
3,FFVVRYCWLRR [MPZ_Y181_YF],inactive: 0.211
4,LWPIWYRCHRP [MRGPRX1_Y130],inactive: 0.364
5,LLLLFYVVRFC [MPZ_Y177_YF],inactive: 1.26
6,TNYSLYLRSLE [MTM1_Y71_R69S],inactive: 0.836
7,DDSNLYINVKL [MTHFD1_Y52],inactive: 1.23
8,GESQGYDIMEA [MSH2_Y863_P868A],inactive: 0.459
9,STTSDYQWDFS [MTDH_Y364_V368F],inactive: 0.923
10,RQSTLYSFFPT [MSH6_Y8_K13T],inactive: 0.873
11,IITDYYVDMKF [MPP4_Y567_V562I],inactive: 1.41
12,AEDKPYAELWT [MPI_Y46_M51T],inactive: 0.767
13,PLFKIYVAELI [MRPL28_Y230],inactive: 1.3
14,TRDVNYGWIIH [MT-CYB_Y75_R80H],inactive: 1.13
15,TRDVNYGWIIR [MT-CYB_Y75],inactive: 0.927
16,ARGMEYLAEQK [MST1R_Y1198_G1195S],inactive: 0.683
17,ARSMEYLAEQK [MST1R_Y1198],inactive: 1.13
18,VDEVLYEDSST [MTHFS_Y197],inactive: 0.696
19,TRDVNYGWTIR [MT-CYB_Y75_I78T],inactive: 0.863
